Experimental findings from patent US20030007968A1 (published 2003) are described below.

One may read the koff as the rate constant with which the complex falls apart. A low value points to a long-lived complex. By kon is commonly meant the rate constant with which the complex forms. The Kd is the constant that tells how readily two partners part at equilibrium. High values mean a looser complex, low ones a tighter complex.

The target in assay [1] is T1, CD86Ig (UniProt P42081 24-247, limits assumed).
T1 construct: Immobilized on the BIAcore chip by amine coupling; also called soluble CD86Ig
T1 sequence (looked up): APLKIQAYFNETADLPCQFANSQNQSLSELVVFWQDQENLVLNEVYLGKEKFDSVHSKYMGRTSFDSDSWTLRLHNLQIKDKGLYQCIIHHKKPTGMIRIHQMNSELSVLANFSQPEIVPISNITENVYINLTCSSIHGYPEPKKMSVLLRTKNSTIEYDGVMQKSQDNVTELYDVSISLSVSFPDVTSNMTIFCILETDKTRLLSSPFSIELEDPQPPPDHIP
In words: SPR screening of COS culture media over immobilized CD86Ig.

For assay [2], the target named is T2, CD80Ig (UniProt P33681 35-242, limits assumed).
T2 construct: Immobilized on the BIAcore chip by amine coupling; also called soluble CD80Ig
T2 sequence (looked up): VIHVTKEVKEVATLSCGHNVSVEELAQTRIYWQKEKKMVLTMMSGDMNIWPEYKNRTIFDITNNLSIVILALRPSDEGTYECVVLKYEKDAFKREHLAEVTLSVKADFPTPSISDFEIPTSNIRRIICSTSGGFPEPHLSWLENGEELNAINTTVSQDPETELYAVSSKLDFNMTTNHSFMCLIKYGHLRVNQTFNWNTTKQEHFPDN
In words: SPR (BIAcore), CD80Ig immobilized, purified monomeric analyte.

Assay [3] has as its target T1, CD86Ig. Nature of the assay: SPR (BIAcore), CD86Ig immobilized, purified monomeric analyte. In general terms: In SPR one partner is held on a chip, and binding of the other changes the refractive index at the surface.
Assay [4] has as its target T2, CD80Ig. In words: SPR (BIAcore), equilibrium, CD80Ig immobilized, purified monomeric analyte.
The target of assay [5] is T1, CD86Ig. Nature of the assay: SPR (BIAcore), equilibrium, CD86Ig immobilized, purified monomeric analyte.

B1: L104EA29LIg (Fc fusion)
chain: MHVAQPAVVLASSRGIASFVCEYASPGKLTEVRVTVLRQADSQVTEVCAATYMMGNELTFLDDSICTGTSSGNQVNLTIQGLRAMDTGLYICKVELMYPPPYYEGIGNGTQIYVIDPEPCPDSDQ[letters of human IgG1 Fc with changes not shown]
notes: Tested as unpurified COS cell culture medium
For B1, the “fold slower “off” rate than wild type CTLA4Ig” value with CD86Ig [1] is ~4 fold.

B2: L104EA29WIg (Fc fusion)
chain: MHVAQPAVVLASSRGIASFVCEYASPGKWTEVRVTVLRQADSQVTEVCAATYMMGNELTFLDDSICTGTSSGNQVNLTIQGLRAMDTGLYICKVELMYPPPYYEGIGNGTQIYVIDPEPCPDSDQ[letters of human IgG1 Fc with changes not shown]
notes: as for B1
Take B2: the “fold slower “off” rate than wild type CTLA4Ig” value with CD86Ig [1] is ~4 fold.

B3: L104EA29TIg (Fc fusion)
chain: MHVAQPAVVLASSRGIASFVCEYASPGKTTEVRVTVLRQADSQVTEVCAATYMMGNELTFLDDSICTGTSSGNQVNLTIQGLRAMDTGLYICKVELMYPPPYYEGIGNGTQIYVIDPEPCPDSDQ[letters of human IgG1 Fc with changes not shown]
notes: as for B1
Take B3: the “fold slower “off” rate than wild type CTLA4Ig” value in the assay with CD86Ig [1] was ~4 fold.

B4: CTLA4XC120S (receptor)
chain: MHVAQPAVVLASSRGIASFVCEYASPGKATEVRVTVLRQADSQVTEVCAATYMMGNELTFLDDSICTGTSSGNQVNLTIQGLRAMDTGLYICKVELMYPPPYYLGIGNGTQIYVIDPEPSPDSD
notes: It is the CTLA4 extracellular domain (+1 to +124) with C120S, made from an oncostatin M-CTLA4 plasmid; also called single chain CTLA4XC120S; monomeric CTLA4 extracellular domain
On to B4, for which the koff with CD80Ig [2] was 0.23 s⁻¹; in the assay with CD86Ig [3] it was 0.84 s⁻¹. Moreover, the kon in the assay with CD80Ig [2] was determined as 1.2e+06 M⁻¹ s⁻¹; with CD86Ig [3], 1.65e+06 M⁻¹ s⁻¹. In addition, the Kd in the assay with CD80Ig [4] is 195 nM; with CD86Ig [5], 511 nM.
